Data reported in the BET-seq Pho4 binding data (Le et al. 2018).
The list shows a part of the results. These are noisy estimates, calculated here from bound and input reads.

Molecular target: T1, Pho4 (S. cerevisiae) (UniProt P07270)
T1 sequence: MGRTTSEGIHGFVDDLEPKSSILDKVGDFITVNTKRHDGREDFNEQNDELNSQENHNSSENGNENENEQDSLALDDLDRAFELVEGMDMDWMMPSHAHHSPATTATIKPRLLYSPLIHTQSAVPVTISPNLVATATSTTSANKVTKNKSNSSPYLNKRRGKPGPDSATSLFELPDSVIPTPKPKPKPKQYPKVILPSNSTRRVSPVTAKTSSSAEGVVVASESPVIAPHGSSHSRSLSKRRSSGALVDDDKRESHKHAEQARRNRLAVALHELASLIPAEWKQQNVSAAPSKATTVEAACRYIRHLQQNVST
Test: relative binding free energy (BET-seq); higher = weaker binding
Conditions: reference: library average

Row | Sequence | relative binding free energy [kcal/mol]
1 | AGGGACACGTGAGGAG | 0.25
2 | TGGGACACGTGACTGG | 0.07
3 | CGGGGCACGTGCGTAT | -0.25
4 | AGATGCACGTGAAGAT | 0.16
5 | GTGTGCACGTGTTCAG | -0.02
6 | GGATCCACGTGATGGG | 0.28
7 | TATGGCACGTGATCAT | -0.15
8 | TGAGGCACGTGATTAA | -0.03
9 | GGGGACACGTGTAGGT | 0
10 | TTTGTCACGTGTGAAT | 0.16
11 | ATTATCACGTGGTTCA | -0.03
12 | ACTGTCACGTGTGATT | 0.08
13 | ATGGTCACGTGAAGTC | 0.29
14 | TTACGCACGTGGGTCT | -0.26
15 | TATTGCACGTGGTCTA | -0.25
16 | TTGTTCACGTGGAGTA | 0.28
17 | CTAGTCACGTGAGGGC | 0.27
18 | AGATTCACGTGTGTTG | 0.26
19 | GTACGCACGTGCGTTT | 0.06
20 | CGTTTCACGTGTAGCT | 0.29
21 | AGGCTCACGTGGTTTA | 0.16
22 | GGTGACACGTGACGGG | 0.16
23 | ACAGGCACGTGTTTGT | -0.15

Row | Sequence | relative binding free energy [kcal/mol]
24 | TTTATCACGTGTCGTT | 0.27
25 | GCTGGCACGTGGGGAA | -0.18
26 | AAATGCACGTGTGTAG | -0.01
27 | GGATGCACGTGGTGAA | -0.02
28 | ATCTGCACGTGGGTAT | -0.13
29 | GGCAGCACGTGTGGTG | 0.06
30 | CTGGTCACGTGTGGGA | 0.17
31 | ATATACACGTGTATAT | 0.11
32 | TGTTGCACGTGATTTG | 0.21
33 | TGGTCCACGTGTAAGT | -0.01
34 | TTTTACACGTGCGGGG | 0.04
35 | AGTGCCACGTGTGGGT | -0.02
36 | AATTGCACGTGAGCGA | 0.31
37 | TCATTCACGTGGGATT | 0.21
38 | TGTAACACGTGTTTTC | -0.02
39 | ATGGACACGTGTGTTA | -0.01
40 | ATTTTCACGTGGTTTC | 0.07
41 | AATTTCACGTGTTGGT | 0.18
42 | TATTGCACGTGTATTA | 0.03
43 | TCCGTCACGTGGGTTA | -0.07
44 | TTGCGCACGTGTGTAT | -0.12
45 | TGCATCACGTGGTGTT | 0.03
46 | GGATACACGTGGGTGT | -0.08

Row | Sequence | relative binding free energy [kcal/mol]
47 | TTGAACACGTGTAAGA | 0.21
48 | TTTATCACGTGTCTAA | 0.2
49 | GTTGGCACGTGATTGA | 0.06
50 | GGTGGCACGTGTTCCG | -0.05
51 | TTGTACACGTGGCGGA | -0.08
52 | TTCTACACGTGGATTG | 0.01
53 | CCGGTCACGTGATTGG | 0.23
54 | GGATTCACGTGTTATT | 0.37
55 | TTAAACACGTGGGTGC | -0.2
56 | AAGATCACGTGGAAGG | 0.16
57 | TTGTTCACGTGGGACT | 0.26
58 | TGCTTCACGTGAGATT | 0.29
59 | TTTAACACGTGCGAGT | -0.05
60 | GTTTGCACGTGTCATT | -0.04
61 | CTTATCACGTGGGGTA | -0.12
62 | TAGTGCACGTGTTTGT | -0.09
63 | ATGATCACGTGTAGAT | 0.19
64 | TGTTTCACGTGTGCGA | 0.23
65 | CGGGGCACGTGAAGGT | 0.22
66 | TTCAACACGTGTTTTG | 0.1
67 | AGTTTCACGTGGGATA | 0.26
68 | GGGGACACGTGTGTCG | 0.11
69 | CGGTGCACGTGAGTTT | 0.25

Row | Sequence | relative binding free energy [kcal/mol]
70 | CTGGTCACGTGAGTTG | 0.36
71 | GGTTCCACGTGTTATA | 0.24
72 | GGTATCACGTGGATTA | 0.28
73 | GGAGTCACGTGGAAAG | 0.06
74 | ATTAGCACGTGAAGTT | 0.24
75 | GTTGGCACGTGCTAGC | 0.11
76 | TCGGTCACGTGCGTTT | -0.06
77 | GAAGGCACGTGTGTTG | 0
78 | GTTGGCACGTGTTTCG | 0.08
79 | CTCGTCACGTGTTTGT | 0.12
80 | GGGGTCACGTGGAAGA | 0.1
81 | TCAGTCACGTGATGTA | 0.23
82 | GATTCCACGTGGGGAG | 0.08
83 | TGGTGCACGTGATGGG | 0.11
84 | TGGGACACGTGAGACT | 0.4
85 | CCGTACACGTGTTGGT | 0.11
86 | GTGGTCACGTGGATGA | 0.17
87 | GCTCGCACGTGGGGAA | 0.06
88 | GGTGACACGTGGTTAG | 0.02
89 | AGTTGCACGTGGCGTG | -0.07
90 | AGTGACACGTGTGCGT | -0.07
91 | TTCTTCACGTGTATAA | 0.34
92 | GGTGGCACGTGTTCGC | -0.05

Row | Sequence | relative binding free energy [kcal/mol]
93 | TATTGCACGTGGCTAG | -0.03
94 | GTATACACGTGAGTTG | 0.22
95 | AGTATCACGTGTCTAT | 0.06
96 | GAGAGCACGTGTTTGC | 0.09
97 | GTGGGCACGTGGTCCG | -0.14
98 | TGAAGCACGTGTTCTG | -0.08
99 | TTTGACACGTGAGGCA | 0.14
100 | TATGTCACGTGGCTTA | -0.16
101 | ACGGACACGTGTGTTT | 0.03
102 | AGTGTCACGTGTCATG | -0.04
103 | TTATGCACGTGAGGAG | 0.33
104 | TAGCTCACGTGCGTGT | 0.03
105 | ATATGCACGTGGTGTC | -0.19
106 | GTAGGCACGTGGCGAA | -0.1
107 | TGTGACACGTGGCTAT | -0.13
108 | GTGTGCACGTGGTAGC | -0.01
109 | TGGAACACGTGGAGGG | 0.15
110 | AGGGTCACGTGGACTG | -0.02
111 | TGAATCACGTGTGCGG | 0.18
112 | TGGTACACGTGTGTCT | -0.16
113 | AAGTACACGTGCGGTT | 0.13
114 | TGCGTCACGTGGCTTA | -0.04
115 | TCTGACACGTGTGTGG | 0.03
